In the supplement of paper PMC11417369:
± gives the standard deviation of the averaged measurements. Some of the results follow.

system: PfAP2-EXP AP2 domain (GST-tagged); test: gcPBM binding intensity (ln(normalized median fluorescence intensity)); higher = stronger DNA binding
Procedure, shortened: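 An Agilent 4 × 180k array carrying primer-extended double-stranded 36-bp intergenic genomic probes and negative controls received GST-tagged P. falciparum DNA-binding domains expressed in E. coli, about 25 μg on average, for 1 h. The binding buffer contained 1× PBS, 1% milk, 0.2 mg/ml BSA, 0.5% salmon testes DNA and 0.03% Triton X-100. Binding intensity is the top Masliner-normalised natural-log median intensity across replicate spots of either probe orientation, read after Alexa488 anti-GST antibody staining and a 488 nm scan.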

| Sequence | gcPBM binding intensity (ln) |
| --- | --- |
| ATTATATTAATATATATATATATATATATAATAATA [CACACA_negctrl_site437] | 8.31 ± 0.27 |
| TTTTTTTCTCTTTTTATTACAAAAAGGGTTTATATA [TGCATGCA_negctrl_site75] | 8.33 ± 0.44 |
| ATGAAAAAATTTAAATGTACATTACATATATTTATT [XGTACX_site2524] | 8.28 ± 0.38 |
| TAATATTATATTATATGTACATAACAAATTATATTT [XGTACX_site4296] | 8.6 ± 0.21 |
| AAAAAAAATTCCAGTACACACAATAATACTAAAAAT [CACACA_site2801] | 8.65 ± 0.35 |
| AAAAATTACAAAAATGCATGTACTATTCATATTTTT [TGCATGCA_site918] | 8.6 ± 0.38 |
| ATGAGTAACATATTTGTGCACATATGGTTATTTTTA [GTGCAC_site9541] | 8.665 ± 0.078 |
| TATATATATATATATTTTTTTTTTTTATGCACATGG [CACACA_negctrl_site1573] | 10.1 ± 0.36 |
| TTTTTTTTTTTGAAATGTACATTCCAAAAACTGATA [XGTACX_site1495] | 8.53 ± 0.49 |
| CTTTTGAACAGTTCATGTACTCAATTTTTTAATAGT [XGTACX_site6498] | 8.45 ± 0.33 |
| TAATACCTATGGTATAGTACGTATTATTTTATAGAG [XGTACX_site2078] | 8.49 ± 0.5 |
| TATTTTTATTGGTACTGTACCTATTTAGAAATACAT [XGTACX_site6663] | 8.61 ± 0.35 |
| ATGATTTCATTTGAGAGTACGTAAAAATAATACGTA [XGTACX_site4958] | 8.26 ± 0.29 |
| TAATACAAAAACAATGTTCTTTCAAACATAAACATA [CACACA_negctrl_site1628] | 8.25 ± 0.37 |
| TTTGCCATATGACACACACACATGTAAACCCCCTTT [CACACA_site6873] | 9.41 ± 0.45 |
| TATTTATAAAAAAATACATGCATTTTTTTTTTTTTT [TGCATGCA_site65] | 8.62 ± 0.21 |
| TGTTAATTCTTAAGAATTTCCATAATTTCTTCTTTT [CACACA_negctrl_site1065] | 8.48 ± 0.43 |
| TGGAATAATCCGCGTACACACATATATATATTAAGA [CACACA_site4253] | 8.87 ± 0.28 |
| TTATATTCTAGAGACACATGCGATTTTTTATTTTAT [TGCATGCA_site649] | 8.53 ± 0.33 |
| AATTAACCCTAATTTTGTACATATTCCTTTTCTCAT [XGTACX_site46] | 8.9 ± 0.55 |
| AATAAAAATAGGAATACGCACACGATGATTAATTTA [CACACA_site1836] | 8.53 ± 0.36 |
| TATACCACACGATATACACACTTGTAGACATCTTTT [CACACA_site6232] | 8.57 ± 0.52 |

| Sequence | gcPBM binding intensity (ln) |
| --- | --- |
| GTTACTATGATTAATGCATGCAAATACCAAAAAAAA [TGCATGCA_site590] | 10.16 ± 0.064 |
| TAATACGAATGAGGCACACACCTAGTATACATGCTT [CACACA_site6438] | 8.44 ± 0.43 |
| TCCCTTCATCTTTTATGTACTAAAAAATTGAATAAT [XGTACX_site2172] | 8.7 ± 0.38 |
| AATTAAAATTTTTGAAGTACACTCAAAATAAGTTAT [XGTACX_site4490] | 8.51 ± 0.11 |
| AATTAATGGCTAAAGGTGCACAATATATATATTACA | 9.65 ± 0.33 |
| AAAATAAAAAAAAACACACACATACAAGCATATATA [CACACA_site1585] | 8.66 ± 0.46 |
| AAAAAAAAATTTAAGGGTACATACAAATATATATAT [XGTACX_site5078] | 9.34 ± 0.16 |
| CCACATTAAAAAAAAACACACATATATTATATATAT [CACACA_site1155] | 8.74 ± 0.042 |
| GTTACAGAGAATGTTGTGCACATATCAATAATATAT [GTGCAC_site9671] | 8.89 ± 0.11 |
| AAAATGACATAATGGGGAATAGACATATACATAAAT [CACACA_negctrl_site1669] | 8.95 ± 0.47 |
| AATACATGAATATGTAGTACAGAAAAAAAAAATATA [XGTACX_site1945] | 8.8 ± 0.35 |
| TATATATATATATATATTTTAAATGATATAAATGGT [TGCATGCA_negctrl_site152] | 10.2 ± 0.42 |
| AATTAATTAAATTAATGTACACATATATTTGTATTC [XGTACX_site2341] | 8.53 ± 0.27 |
| AAATGGTAAGAAAATAAATAAAGTTCTACCACATAA [CACACA_negctrl_site1542] | 8.54 ± 0.51 |
| ATTTTTCTTTTATTAACACACATATAAATAAATACA [CACACA_site2876] | 8.6 ± 0.47 |
| ATATATATATATATATATATATATGTTTGATTTTTT [XGTACX_negctrl_site98] | 10.1 ± 0.45 |
| TAGAAAGAATATAATTGTACAAATGTTGATAGATAA [XGTACX_site7259] | 8.65 ± 0.16 |
| ATAATAATAAAAATTATACATAAGTATATGCACATA [XGTACX_negctrl_site583] | 8.43 |
| TATAAACCATAATTAACACACAAAATAAGTTACATA [CACACA_site3227] | 8.71 ± 0.28 |
| ACATATGGTATTTAAACACACAAAAAAGAAAGAAAA [CACACA_site991] | 8.77 ± 0.52 |
| TTTTGCTTTTTTTTTCTTTTTTGTTTTATATATATT [CACACA_negctrl_site103] | 8.51 ± 0.53 |
| TTGACATATAAGATATGTACTAATACACACACATAT [XGTACX_site1904] | 8.52 ± 0.29 |

| Sequence | gcPBM binding intensity (ln) |
| --- | --- |
| AAATAATAAAACAACACACAAATAGTTAAAATAGAA [CACACA_site5007] | 8.85 ± 0.47 |
| ACATTCTATATATACACACATACATAATAAAGAAAG [CACACA_site2771] | 8.71 ± 0.38 |
| TTTTAATGATATATGAGTACACATTGTTTTTTATAA [XGTACX_site1072] | 8.4 ± 0.23 |
| ATATAATGATGGAAAAGAAAAGAAATAAAAAAAAAA [CACACA_negctrl_site1170] | 8.49 ± 0.49 |
| AGAGAAAGAAGGGAGAAAAAATAAAATAAAATAAAA [GTGCAC_negctrl_site299] | 8.74 ± 0.42 |
| AATAAAAAAAAACTCATGCACACAATATTATGAAAA [CACACA_site664] | 8.67 ± 0.44 |
| TGCATATGCATTATTTGTACATATGTAGATAATTAT [XGTACX_site6930] | 8.79 ± 0.3 |
| CATATATAGATATATACACACATACATACATACATA [CACACA_site7748] | 8.55 ± 0.38 |
| AATAAAATAAATATATGTACATATATATAACCATTA [XGTACX_site5549] | 8.61 ± 0.33 |
| AAAAATTACAAATACAAACACACAAATGTTTTTCAT [CACACA_site3551] | 8.17 ± 0.38 |
| AGTTTATTTGTAAAAAGTACATATTTAAGAAAACTT [XGTACX_site2318] | 8.45 ± 0.28 |
| AAATTTGGCAAACACACACACACACCCACACCCACA [CACACA_site8095] | 8.63 ± 0.47 |
| TTCTAACTCTAACAAGTGCAATATATATACATAATA | 8.56 ± 0.17 |
| AATATATATCATCACACACACATACATAAATATATA [CACACA_site184] | 8.68 ± 0.39 |
| ATAGAATACATATATGAACACACAGAGTTTTAAAAA [CACACA_site8879] | 8.68 ± 0.57 |
| AATACATATAAAAGTACACACACACCCATATATATA [CACACA_site8220] | 8.85 ± 0.44 |
| TATATTATATATATGTGTACATATAAATGTAACAAA [XGTACX_site5025] | 8.32 ± 0.31 |
| TTTTTTTTTTGATGTTGTACATATATACTATATAAT [XGTACX_site1332] | 8.57 ± 0.44 |
| GAAAATAAAAAAAATAAAAAAAATAAAAAAAATTAT [XGTACX_negctrl_site443] | 8.13 ± 0.51 |
| TTTTGTAACCTATGCACGCACACAAGAAAAAAACAA [CACACA_site3776] | 8.71 ± 0.41 |
| TAAATATCTAAAGACTGTACAATTAAATATAAACAT [XGTACX_site1450] | 8.52 ± 0.3 |
| TTATAAAGAACACAGACACACAAAGAAAGAACCAAT [CACACA_site4175] | 9.05 ± 0.51 |

| Sequence | gcPBM binding intensity (ln) |
| --- | --- |
| CACAAATAAATACATACACACATATATACTCATATA [CACACA_site4379] | 8.37 ± 0.49 |
| TTACACAAATAGCTGCATTTATAAAATACAATTAAA [CACACA_negctrl_site241] | 8.31 ± 0.39 |
| TGGGCGTCATAATGAACACACAATTATATTATGACT [CACACA_site3910] | 8.4 ± 0.36 |
| AAATATATATATTTACGTACATATATACAAATAGAG [XGTACX_site6067] | 8.72 ± 0.27 |
| ATATATATAATAATATGTACGGAAAAAGCTTAAGCT [XGTACX_site5661] | 8.88 ± 0.46 |
| TTTTGTCAATTTTAGATTTTTCAATACATGGATATT [CACACA_negctrl_site319] | 8.22 ± 0.48 |
| ATATATATATATTTATGTACGAATATGTTTAATTTA [XGTACX_site3986] | 9.86 ± 0.19 |
| AATATATTCCACATGTGTACATATATATATATATAT [XGTACX_site8006] | 10.3 ± 0.24 |
| AAAAATAAAGAAACAGGTACGCATATATTAAGATAT [XGTACX_site8097] | 8.95 ± 0.47 |
| TTTCCTTCTACAAAAAATTTTATCAAGAGGAAGTAC [CACACA_negctrl_site926] | 8.64 ± 0.33 |
| TGTCACTACAAATGAGTGCATTAAATAATTTGGAAA | 8.98 ± 0.41 |
| CCATAGATATTTTATACACACATATAATATATTAAG [CACACA_site4363] | 8.55 ± 0.45 |
| AATATTATTTATATTTGTACACAGTAATATAAAATA [XGTACX_site4884] | 8.34 ± 0.3 |
| ATATGCAAAGAGTATAATCAAAATGTAAATAAATAA [GTGCAC_negctrl_site141] | 8.78 ± 0.4 |
| CGAACACAAACACAAACACACATCAGATATAAATAT [CACACA_site6736] | 8.53 ± 0.7 |
| ATTTTAGGAAAAAAAAGTACATATAATTTTTTATAT [XGTACX_site6954] | 8.19 ± 0.31 |
| TGTTTGCTTATGTGTTAAATATATATATATATATAT [TGCATGCA_negctrl_site218] | 9.44 ± 1.5 |
| TTTTTTTTGATATATACACACAATAAATAAATATAA [CACACA_site7400] | 8.39 ± 0.38 |
| ATTTATTATTATATCACACATAATATATTAAATGAT [CACACA_site5821] | 8.28 ± 0.39 |
| AAAAATATAAAAATAGCACACATATATACATATATA [CACACA_site7901] | 8.34 ± 0.4 |
| TATGGAGAAATAAATAGTACGTATTTTATTTAAAAA [XGTACX_site3129] | 8.54 ± 0.23 |
| CTTGCAAAAAGTATATGTACATATATATATATATAT [XGTACX_site5792] | 9.9 ± 0.2 |
